Out of some 150,000 compounds screened, about 540 (0.36%) showed an effect of 50% or more. Some of the results follow.
These compounds were tested on Plasmodium falciparum (assay: Primary screen in NF54 nanoGlo assay, in single point, at 2uM, 72h; a lower Z score goes with more inhibition). Settings: timepoint 72 hour.
Type: functional, Erythrocyte

Q: How did the “% Inhibition” value turn out when Cc1noc(-c2ccsc2NC(=O)c2cnoc2C)n1 was run?
A: -6%

Q: And the Z score?
A: 1.22

Q: Which “% Inhibition” value does the source give for NC(=O)c1cc(S(=O)(=O)N2CCC(N3CCCCC3)CC2)cs1 here?
A: -9%

Q: And the Z score?
A: 0.84

Q: What does the source list for CCCCC(=O)NCc1nnc(C(=O)Nc2ccc3c(c2)OCO3)s1?
A: % Inhibition: 15%; Z score: -1.7

Q: Which results are given for CCN1CCC(NC2CCOCC2)C1c1cc(F)c(F)c(F)c1 (stereo unspecified)?
A: % Inhibition: -1%; Z score: 0.22

Q: What does the source list for O=S1(=O)C[C@H](O)[C@@H](N(CCO)Cc2cncn2Cc2ccccc2)C1?
A: % Inhibition: -1%; Z score: 0.06

Q: Which results are given for Cc1ccccc1CN1CC[C@H](CNC(=O)CCc2c(C)nn(C)c2C)C1?
A: % Inhibition: -4%; Z score: 0.65

Q: Which results are given for O=C(NCc1cc(-c2ccccn2)no1)[C@H](O)C1CCCCC1?
A: % Inhibition: -3%; Z score: 0.48

Q: CCS(=O)(=O)N1CCC(C(=O)N2N=C(C)C[C@]2(O)C(F)F)CC1 was tested. Which “% Inhibition” value did it give?
A: 2%

Q: And the Z score?
A: -0.31

Q: Which results are given for CN1CCOc2cc(C(=O)N(C)[C@H]3CS(=O)(=O)C[C@@H]3O)ccc21?
A: % Inhibition: 0%; Z score: -0.01

Q: Which “% Inhibition” value does the source give for CC[C@@](C)(C#N)NC(=O)Cc1csc(-c2ccoc2)n1 here?
A: -3%

Q: And the Z score?
A: 0.37

Q: Which results are given for CC(C)N1CCC(NC(=O)[C@H]2CC(=O)N(c3cccc(Br)c3)C2)CC1?
A: % Inhibition: 8%; Z score: -1.15

Q: Cc1c(CNC2CCC(C)CC2)c(C(=O)O)c(C)n1Cc1ccc(F)cc1Cl (stereo unspecified) was tested. Which “% Inhibition” value did it give?
A: -18%

Q: What about the Z score of the same compound?
A: 3.39

Q: C[C@H](Nc1cccc(OCCF)c1)c1ccc(F)cn1 was tested. Which “% Inhibition” value did it give?
A: 9%

Q: What about the Z score of the same compound?
A: -1.64

Q: With CCC(=O)N1CC[C@H](Cn2c(C)cnc2C2CCC2)C1 as the compound, how does the “% Inhibition” value read?
A: 5%

Q: What about the Z score of the same compound?
A: -0.64

Q: For Cc1nonc1CC(=O)N[C@H]1CN(C(=O)c2ccc(Cl)cc2)C[C@@H]1C1CC1, which “% Inhibition” value is on record?
A: -10%

Q: And the Z score?
A: 1.27

Q: Which results are given for Cc1ccnc(NCC(CO)C2CCOC2)c1 (stereo unspecified)?
A: % Inhibition: 5%; Z score: -0.7

Q: With COc1ccc(-c2ncc(CN3CCC[C@H](C(=O)c4ccc(Cl)cc4)C3)cn2)cc1 as the compound, how does the “% Inhibition” value read?
A: -6%

Q: And the Z score?
A: 0.8

Q: Which results are given for COc1cccnc1CNC(=O)c1cc(COC(C)(C)C)on1?
A: % Inhibition: -12%; Z score: 2.11

Q: Which “% Inhibition” value does the source give for Cc1cc(S(=O)(=O)N(C)c2cnn(C)c2)sc1Cl here?
A: -12%

Q: And the Z score?
A: 1.06

Q: Which “% Inhibition” value does the source give for CCN(CC)C(=O)C1CCCN1C(=O)NC(C)c1csc(C)n1 (stereo unspecified) here?
A: 4%

Q: What about the Z score of the same compound?
A: -0.55

Q: For CCc1c(C(C)(C)C)noc1NC(=O)COC[C@H]1CCCO1, which “% Inhibition” value is on record?
A: 2%

Q: And the Z score?
A: -0.35

Q: O=C(O)c1cc(-c2ccc(C3CCCCC3)cc2)nc2ccccc12 was tested. Which “% Inhibition” value did it give?
A: 9%

Q: What about the Z score of the same compound?
A: -1.14

Q: COc1ccc(CNC(=O)C2CCN(c3nccn4nc(-c5ccccc5)cc34)CC2)cc1OC was tested. Which “% Inhibition” value did it give?
A: -4%

Q: And the Z score?
A: 0.41
